Hit rate of the full screen: of about 48,000 compounds, about 550 (1.1%) were called active. Not shown: some 4% with an inconclusive outcome. No stated cut-off is given here; in the data, active means potency below about 15 µM; inconclusive means mostly about 16 µM to 33 µM; inactive means weaker than that. This is one part of the list.
biological target: Lysosomal acid glucosylceramidase (Homo sapiens) (UniProt P04062); assay: Glucocerebrosidase; settings: purified enzyme, resorufin glucoside fluorescence (screen aimed at inhibitors), 20 min; series mostly up to 77 µM;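 further: the screen sought inhibitors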
Sequence of UniProt P04062 (P04062 whole entry, looked up): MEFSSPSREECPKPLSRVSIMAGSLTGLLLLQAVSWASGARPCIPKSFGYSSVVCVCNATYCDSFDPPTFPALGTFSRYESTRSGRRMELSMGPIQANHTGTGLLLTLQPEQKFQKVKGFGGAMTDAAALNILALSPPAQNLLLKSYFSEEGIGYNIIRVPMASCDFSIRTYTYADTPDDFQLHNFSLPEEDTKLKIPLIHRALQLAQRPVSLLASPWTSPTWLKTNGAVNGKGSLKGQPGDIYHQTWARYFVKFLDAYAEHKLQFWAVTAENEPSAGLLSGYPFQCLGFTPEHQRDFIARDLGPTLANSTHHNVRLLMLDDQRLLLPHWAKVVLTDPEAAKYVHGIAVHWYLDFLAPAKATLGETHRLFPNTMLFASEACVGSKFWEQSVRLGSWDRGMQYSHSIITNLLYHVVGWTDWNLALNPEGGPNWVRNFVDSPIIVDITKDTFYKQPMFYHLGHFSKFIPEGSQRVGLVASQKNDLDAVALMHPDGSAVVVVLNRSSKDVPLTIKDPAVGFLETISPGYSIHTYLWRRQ
How it was run: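 Normal human glucocerebrosidase (0.2 nM final) was assayed with resorufin β-D-glucopyranoside (30 uM final) in 50mM citric acid/KH2PO4, 10mM sodium taurocholate, 0.01% tween-20, pH 5.9. Compounds were titrated; fluorescence (Ex 548, Em 600) read after 20 min at RT.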
Potency means the concentration at half of the fitted maximal effect.

Potency, inactive:
CC(C)COC(=O)N1CCCC1C(=O)Nc1nccs1 (stereo not drawn) > 76.9 µM
Cc1nc2nc(Cc3ccccc3)nn2c(C)c1Cl > 76.9 µM
O=C(CSc1nnc(-c2cccs2)n1-c1ccccc1)N1CCCC1 > 76.9 µM
CC(C)Oc1cccc(C(=O)Nc2ccccc2N2CCOCC2)c1 > 76.9 µM
C=CCN(C(=O)CCC(=O)Nc1cc(C)on1)C(C(=O)NC1CCCC1)c1cccnc1 (stereo not drawn) > 76.9 µM
Cc1c(C#N)c2ccccc2n1CC(=O)NCc1cccnc1 > 76.9 µM
O=C(O)CSCc1c(F)cccc1Cl > 76.9 µM
CCOC(=O)c1c(CN2CCN(C)CC2)oc2ccc(OC)cc12 > 76.9 µM
Cc1cc2nnc(SC3CCOC3=O)n2c2ccccc12 (stereo not drawn) > 76.9 µM
CCC1Oc2ccc(Cl)cc2N(CC(=O)O)C1=O (stereo not drawn) > 76.9 µM
O=C(COc1ccc(Cl)cc1)NCc1nnc(SCC(=O)Nc2ccccc2)o1 > 76.9 µM
Cc1cc(N(CN2CCCC2=O)C(=O)c2ccc(F)cc2)no1 > 76.9 µM
CC(C)c1cc(NC(=O)CSc2nnc(-c3ccccc3F)n2C)on1 > 76.9 µM
COc1cc2c(cc1OC)C(C(=O)NCCN1CCOCC1)C1c3ccccc3CCN1C2=O (stereo not drawn) > 76.9 µM
N#CCSc1nc2c(c(C3CC=CCC3)c1C#N)CCC2 (stereo not drawn) > 76.9 µM
CCCn1c(=O)c(Cc2ccccc2)c(O)c2ccccc21 > 76.9 µM
Cc1cc(NC(=O)CSc2nnc(C3CC3)n2C)no1 > 76.9 µM
COc1cc(NC(=O)Cc2ccccc2OC)cc(OC)c1 > 76.9 µM
COc1ccc(NC(=O)N2CCC(O)(c3cccnc3)CC2)c(OC)c1 > 76.9 µM
O=C(c1n[nH]c2c1CCCC2)n1ccnc1 > 76.9 µM
COc1ccc(C2=C(C)CC(C)(C)NC2=O)cc1OC > 76.9 µM
COc1ccccc1NC(=O)c1cc(Cl)ccc1NC(=O)c1ccco1 > 76.9 µM
O=c1c2c(nc3n1CCCCC3)-c1ccccc1CC21CCCC1 > 76.9 µM
COc1ccc(-c2nnc(SCC(=O)N3CCOCC3)o2)cc1 > 76.9 µM
CCOC(=O)N1CCN(C(=O)c2ccc(NC(=O)c3ccc(C)cc3)cc2)CC1 > 76.9 µM
O=C(NCc1cccnc1)C1c2ccccc2C(=O)N1C1CCCCCCC1 (stereo not drawn) > 76.9 µM
COc1ccc(OC(=O)c2cccc(S(=O)(=O)N3CCCC3)c2)cc1 > 76.9 µM
O=C(OCc1cc(=O)n2cc(Br)ccc2n1)C1COc2ccccc2O1 (stereo not drawn) > 76.9 µM
CCCn1c(SCC(=O)Nc2cccc(C(=O)OCC)c2)nnc1-c1ccoc1C > 76.9 µM
COc1cc(C2N(c3ccccn3)C(=O)C3CCCN32)cc(OC)c1OC (stereo not drawn) > 76.9 µM
Cc1cc(-c2ccccc2)nc2cc(C(N)=O)nn12 > 76.9 µM
CC(=O)c1cccc(NC(=O)COc2ccccc2)c1 > 76.9 µM
CCOC(=O)c1cccc(NC(=O)CSc2nnc(COc3ccccc3)n2CC)c1 > 76.9 µM
COc1ccc2[nH]c(C)c(CN3CCCC(C)C3)c(=O)c2c1 (stereo not drawn) > 76.9 µM
CCCCSc1nc2c(cc1C#N)CCC2 > 76.9 µM
N#Cc1c(NC(=O)CSc2nnnn2C2CCCCC2)sc2c1CCCC2 > 76.9 µM
COc1cc(C)c(S(=O)(=O)N2CCOCC2)cc1C(C)C > 76.9 µM
CC(C)c1cc(C(=O)NCc2cccnc2)no1 > 76.9 µM
NC(=O)NC(CC(=O)OCC(=O)NC(=O)NCc1ccco1)c1ccc(Cl)cc1 (stereo not drawn) > 76.9 µM
Cc1ccc2nc(-c3ccc(SCC(=O)Nc4cc(C)on4)nc3)[nH]c2c1 > 76.9 µM
O=C1c2oc3ccccc3c(=O)c2C(c2cccc(Br)c2)N1Cc1ccco1 (stereo not drawn) > 76.9 µM
O=C(Cn1cnc2c(nnn2Cc2ccc(Cl)cc2)c1=O)NCc1ccco1 > 76.9 µM
CCOC(=O)N1CCC(NC(=O)c2cccc3c2C(=O)N(Cc2cccnc2)C3)CC1 > 76.9 µM
O=C(COC(=O)C1COc2ccccc2O1)NC1CCS(=O)(=O)C1 (stereo not drawn) > 76.9 µM
CCCNC(=O)Cn1cccc1C(=O)c1ccccc1 > 76.9 µM
O=C(C1CCN(S(=O)(=O)N2CCC3(CC2)OCCO3)CC1)N1CCOCC1 > 76.9 µM
CC(C)C(C(=O)Nc1cccnc1)N1C(=O)c2ccccc2C1=O (stereo not drawn) > 76.9 µM
Clc1ccc(OCc2nn3c(C4CCCCC4)nnc3s2)c(Cl)c1 > 76.9 µM
Nc1ncnc2c1CCC2 > 76.9 µM
CCc1cccc(NC(=O)CN2C(=O)NC3(CCCCCCC3)C2=O)c1 > 76.9 µM
CSc1nnc(Cc2ccc3c(c2)OCO3)o1 > 76.9 µM
CCOc1ccccc1NC(=O)CCN1CCN(S(=O)(=O)c2ccc(OC)cc2)CC1 > 76.9 µM
CCCCN(CC)C(=O)CN(C)S(=O)(=O)c1cccc2nsnc12 > 76.9 µM
CC1CCCCN1CCNC(=O)C1CCN(S(=O)(=O)N2CCCCC2)CC1 (stereo not drawn) > 76.9 µM
CCn1c(CCNC(=O)c2cccs2)nnc1SCC(=O)NC1CCCCC1 > 76.9 µM
Cc1ccc(C)c(NC(=O)C2CCCN2C(=O)OC(C)(C)C)c1 (stereo not drawn) > 76.9 µM
O=C(O)c1ccc(COc2ccc(CO)cc2Cl)cc1 > 76.9 µM
CC(CCc1ccccc1)NCc1ccncc1 (stereo not drawn) > 76.9 µM
COCCN(CCOC)S(=O)(=O)c1ccc(C(=O)NC2CCN(Cc3ccccc3)CC2)cc1 > 76.9 µM
O=C(NCCN1CCN(C(=O)NC2CCCCC2)CC1)NC1CCCCC1 > 76.9 µM
Fc1ccc(-c2nc3n(n2)Cc2ccccc2-3)cc1 > 76.9 µM
COCc1cc(=O)n2[nH]c(C)cc2n1 > 76.9 µM
COc1ccccc1/C=C/CN1CCOCC1 > 76.9 µM
CCOC(=O)N1CCN(C(=O)CSc2nnc(-c3ccc(Cl)s3)o2)CC1 > 76.9 µM
CCc1nnc(NC(=O)CSc2nnc(-c3ccncc3)n2Cc2ccccc2)s1 > 76.9 µM
CSc1nnc(-c2ccccc2Cl)n1N > 76.9 µM
Cc1cc2nnc(SCC(=O)NCc3ccco3)n2c2ccccc12 > 76.9 µM
CN(C)C(=O)CN1C(=O)C2CC=C(Cl)CC2C1=O (stereo not drawn) > 76.9 µM
Cc1ccc(S(=O)(=O)Cn2nnnc2CN2CCN(C(=O)c3ccco3)CC2)cc1 > 76.9 µM
O=C(NCCCN1CCCC1)Nc1cccc2ccccc12 > 76.9 µM
CS(=O)(=O)N1CCCC(C(=O)NCc2ccc(F)cc2)C1 (stereo not drawn) > 76.9 µM
COc1ccc(CCNC(=O)CCCCn2c(=O)[nH]c3ccccc3c2=O)cc1OC > 76.9 µM
COc1oc(-c2ccccc2)nc1C(F)(F)F > 76.9 µM
Cc1ccc2nc(NC3=NCN(CCN4CCOCC4)CN3)nc(C)c2c1 > 76.9 µM
CSc1nc2c(c(=O)n1-c1ccccc1)SCC2 > 76.9 µM
CCOC(=O)c1cc(-c2ccc(C)o2)nn1CCC#N > 76.9 µM
COc1ccc(C(=O)Cn2nnc(-c3ccccc3-n3cnnn3)n2)cc1 > 76.9 µM
C=CCOc1nc(N(C)C)nc(N(C)C)n1 > 76.9 µM
CCc1ccc2nc(NC(=O)c3ccc4c(=O)[nH]c(CN5CCOCC5)nc4c3)sc2c1 > 76.9 µM
COCCn1c(C)cc(C(=O)COC(=O)c2c(C)nn(Cc3ccccc3)c2C)c1C > 76.9 µM
Cc1ccc(S(=O)(=O)N2CCN(C(=O)C3COc4ccccc4O3)CC2)cc1C (stereo not drawn) > 76.9 µM
O=C(NC1CC1)C1CCCN(C(=O)Nc2ccc(F)cc2)C1 (stereo not drawn) > 76.9 µM
O=C(Cn1c(=O)n(-c2cccc(Cl)c2)c(=O)n1CC(=O)N1CCCCC1)N1CCCCC1 > 76.9 µM
CCOC(=O)CCN(Cc1cccs1)S(=O)(=O)c1ccc(F)cc1 > 76.9 µM
CCOc1ccc(NC(=O)CSc2nnc(C3CC3)n2N)cc1 > 76.9 µM
Cc1ccc(S(=O)(=O)N2CCN(C(=O)CN3CCOCC3)C2)cc1 > 76.9 µM
CCn1c(COc2cccc(C)c2)nnc1SCC(=O)Nc1cccc(C(=O)OC)c1 > 76.9 µM
CCc1nnc(NC(=O)CSc2nnc3scc(-c4ccc(C)cc4)n23)s1 > 76.9 µM
Fc1cccc(Cl)c1-c1nnc2ccc(N3CCOCC3)nn12 > 76.9 µM
O=C(CCS(=O)(=O)c1cccc2nonc12)N1CC(=O)N(CCc2ccccc2)C(=O)C1 > 76.9 µM
Cc1ccc(-n2c(SCC(=O)Nc3ccc4cn[nH]c4c3)nnc2-c2ccco2)cc1 > 76.9 µM
N#CC1=C(C2CC2)CC(c2ccccc2)C(C#N)=C1N (stereo not drawn) > 76.9 µM
Cc1noc(NS(=O)(=O)c2ccc(NC(=O)CCC3CCCCC3)cc2)c1C

— PubChem BioAssay AID360 (National Center for Advancing Translational Sciences (NCATS), 2006)
